Measurements taken from article PMC4336329 (PLoS ONE, 2015).
In all, about 310,000 compounds went through this assay and about 2,200 (0.71%) showed an effect of 50% or more. Effects have a minus sign here. Some of the results follow.

What follows are molecules tested against human ether-à-go-go-related gene (hERG) potassium channel (human, UniProt Q12809) (assay: primary screen, population patch clamp on CHO cells stably expressing hERG).
human ether-à-go-go-related gene (hERG) potassium channel, sequence (Q12809 whole entry, looked up): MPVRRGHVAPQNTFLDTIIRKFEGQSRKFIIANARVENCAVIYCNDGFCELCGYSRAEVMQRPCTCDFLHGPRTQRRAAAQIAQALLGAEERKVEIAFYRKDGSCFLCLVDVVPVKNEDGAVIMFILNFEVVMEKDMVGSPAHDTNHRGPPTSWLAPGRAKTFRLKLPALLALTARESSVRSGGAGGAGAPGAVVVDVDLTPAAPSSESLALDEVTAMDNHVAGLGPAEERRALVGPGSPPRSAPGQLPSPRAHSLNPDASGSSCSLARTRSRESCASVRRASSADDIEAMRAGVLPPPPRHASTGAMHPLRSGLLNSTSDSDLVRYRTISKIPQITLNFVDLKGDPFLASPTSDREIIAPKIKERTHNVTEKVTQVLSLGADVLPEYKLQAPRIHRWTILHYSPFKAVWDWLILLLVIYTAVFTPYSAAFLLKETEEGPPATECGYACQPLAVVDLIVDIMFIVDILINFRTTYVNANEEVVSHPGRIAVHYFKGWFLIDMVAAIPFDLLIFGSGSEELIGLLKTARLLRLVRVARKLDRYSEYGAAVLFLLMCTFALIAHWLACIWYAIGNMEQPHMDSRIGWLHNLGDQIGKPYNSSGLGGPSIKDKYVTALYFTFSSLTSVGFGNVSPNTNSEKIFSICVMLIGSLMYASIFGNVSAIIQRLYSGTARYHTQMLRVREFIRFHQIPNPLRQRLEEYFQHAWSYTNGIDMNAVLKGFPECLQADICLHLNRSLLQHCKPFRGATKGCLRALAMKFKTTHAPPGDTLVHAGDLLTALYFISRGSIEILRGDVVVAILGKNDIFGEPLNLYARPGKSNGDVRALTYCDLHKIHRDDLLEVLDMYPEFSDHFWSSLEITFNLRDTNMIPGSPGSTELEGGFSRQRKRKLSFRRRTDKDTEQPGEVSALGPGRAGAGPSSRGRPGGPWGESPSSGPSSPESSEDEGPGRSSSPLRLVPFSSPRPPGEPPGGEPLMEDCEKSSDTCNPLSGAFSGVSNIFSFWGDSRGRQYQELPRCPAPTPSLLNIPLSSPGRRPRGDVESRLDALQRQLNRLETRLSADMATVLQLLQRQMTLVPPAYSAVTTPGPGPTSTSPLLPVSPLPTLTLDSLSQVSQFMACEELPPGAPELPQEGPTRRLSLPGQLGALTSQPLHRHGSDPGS
For `O=C(O)c1cc2c(cc1NC(=O)C1CCCC1)OCCO2`, the “hERG current change (%, negative = inhibition) at 1uM” value was 11.2%.
In the case of `CC1(C)CC(=O)C(C=NCC(N)=O)=C(O)C1`, the “hERG current change (%, negative = inhibition) at 1uM” value is reported as -18.4%.
`CCC(C)NC(=O)C1CCC(=O)N(c2ccc3c(c2)OCO3)C1c1ccc(OC)cc1` (centres unmarked) was tested, and the “hERG current change (%, negative = inhibition) at 1uM” value was 12.4%.
In the case of `Clc1ccc(CNc2ccc(CNc3ncn[nH]3)cc2)c(Cl)c1`, the “hERG current change (%, negative = inhibition) at 1uM” value is reported as 10%.
For `CCOC(=O)C(=O)N=Nc1c(O)[nH]c2ccccc12`, the “hERG current change (%, negative = inhibition) at 1uM” value was 1.57%.
With `N#CC1=C(N)C(C#N)(C#N)[C@H](c2ccsc2)[C@H]2COCC=C12` the “hERG current change (%, negative = inhibition) at 1uM” value was 7.06%.
In the case of `O=C(Nc1ccc(Oc2ccc(S(=O)(=O)N3CCOCC3)cn2)cc1)c1ccco1`, the “hERG current change (%, negative = inhibition) at 1uM” value is reported as -2.13%.
With `CC(C)(C)c1cc(C(=O)N/N=C/c2ccc([N+](=O)[O-])s2)n[nH]1` the “hERG current change (%, negative = inhibition) at 1uM” value was 8.78%.
For `C=CCN(C(=O)CCC(=O)Nc1cc(C)on1)C(C(=O)NC1CCCC1)c1ccc(Cl)cc1` (centres unmarked), the “hERG current change (%, negative = inhibition) at 1uM” value was -12.1%.
`COc1ccc(N2CCN(C3CC(=O)NC3=O)CC2)cc1` (centres unmarked) was tested, and the “hERG current change (%, negative = inhibition) at 1uM” value was 9.22%.
With `COc1ccc2oc(-c3ccc(C)c(NC(=O)CSc4ccc(Cl)cc4)c3)nc2c1` the “hERG current change (%, negative = inhibition) at 1uM” value was 6.01%.
`CCc1ccc(NC(=O)c2ccccc2NC(=O)C2CCCO2)cc1` (centres unmarked) was tested, and the “hERG current change (%, negative = inhibition) at 1uM” value was -4.41%.
With `CCc1ccc(NC(=O)CSc2ccccn2)cc1` the “hERG current change (%, negative = inhibition) at 1uM” value was 8.26%.
For `COc1ccc(-c2nc(N=Nc3ccc(O)cc3)n[nH]2)cc1`, the “hERG current change (%, negative = inhibition) at 1uM” value was 7.13%.
For `Cc1cc2c(N3CCCCC3C)ncnc2s1` (centres unmarked), the “hERG current change (%, negative = inhibition) at 1uM” value was 1.16%.
For `COc1ccc(OC)c(/C=C/C(=O)Nc2ccc(OC)nc2)c1`, the “hERG current change (%, negative = inhibition) at 1uM” value was 6.55%.
With `Cc1nc(N)ncc1C(=O)Nc1ccccc1` the “hERG current change (%, negative = inhibition) at 1uM” value was 9.29%.
`CCOC(=O)C1(CCOc2ccccc2)CCN(Cc2ccc(O)c(OC)c2)CC1` was tested, and the “hERG current change (%, negative = inhibition) at 1uM” value was -69.9%.
`COc1ccccc1-c1ccc(SCc2ccc([N+](=O)[O-])cc2)nn1` was tested, and the “hERG current change (%, negative = inhibition) at 1uM” value was 14.4%.
For `CSc1ccccc1NC(=O)CN(c1cccc(C)c1)S(C)(=O)=O`, the “hERG current change (%, negative = inhibition) at 1uM” value was 7.26%.
With `CSCCC(=O)Nc1ccc(C(C)=O)cc1` the “hERG current change (%, negative = inhibition) at 1uM” value was 8.92%.
With `COc1cccc(CNC(=O)C2CCN(S(=O)(=O)c3cccc4cccnc34)CC2)c1` the “hERG current change (%, negative = inhibition) at 1uM” value was 7.36%.
With `CCCNC(=O)[C@H](C)NC(=O)c1ccc(Br)cc1` the “hERG current change (%, negative = inhibition) at 1uM” value was 8.02%.
With `CC1CCCC(NC(=O)CCS(=O)(=O)c2cc3c(cc2Cl)NC(=O)CO3)C1C` (centres unmarked) the “hERG current change (%, negative = inhibition) at 1uM” value was -9.05%.
With `Cc1ccc(NC(=O)CCS(=O)(=O)c2cccc3nonc23)cc1` the “hERG current change (%, negative = inhibition) at 1uM” value was -2.26%.
With `C=C(C)[C@@H]1CC=C(CN2CCC(CCOC)(C(=O)OCC)CC2)CC1` the “hERG current change (%, negative = inhibition) at 1uM” value was -15.4%.
In the case of `NS(=O)(=O)c1cc(C(=O)OCC(=O)N2CCOCC2)ccc1Cl`, the “hERG current change (%, negative = inhibition) at 1uM” value is reported as 16.4%.
In the case of `O=C(COC(=O)c1ccc(C(F)(F)F)cc1)Nc1cccc(S(=O)(=O)N2CCCCC2)c1`, the “hERG current change (%, negative = inhibition) at 1uM” value is reported as 0.824%.
With `CCC(=O)NNc1ncnc2c1cnn2-c1cccc(C)c1` the “hERG current change (%, negative = inhibition) at 1uM” value was 12.5%.
With `O=C1CN(O)C=C2N=c3ccccc3=C2N1c1ccc([N+](=O)[O-])cc1` the “hERG current change (%, negative = inhibition) at 1uM” value was -3.04%.
For `O=C(Nc1ccc(F)cc1F)C1CCN(S(=O)(=O)c2cccnc2)CC1`, the “hERG current change (%, negative = inhibition) at 1uM” value was 20.2%.
`CC1CCCCN1C(=S)NCCc1ccccc1` (centres unmarked) was tested, and the “hERG current change (%, negative = inhibition) at 1uM” value was 3.57%.
In the case of `CCOc1ccc(C(=O)COC(=O)CC)cc1`, the “hERG current change (%, negative = inhibition) at 1uM” value is reported as 0.968%.
`O=C(NCc1ccc(OC(F)(F)F)cc1)C1CC(c2c(Cl)cccc2Cl)=NO1` (centres unmarked) was tested, and the “hERG current change (%, negative = inhibition) at 1uM” value was 14.7%.
With `C=CCn1cnc2scc(-c3ccc(OC)cc3)c2c1=O` the “hERG current change (%, negative = inhibition) at 1uM” value was 13.3%.
For `N#C/C(=N\Nc1ccc([N+](=O)[O-])cc1)C(N)=S`, the “hERG current change (%, negative = inhibition) at 1uM” value was 11%.
In the case of `CSc1nc2sc(-c3ccccc3)cc2c(=O)n1N`, the “hERG current change (%, negative = inhibition) at 1uM” value is reported as 14.4%.
With `CC(=O)CCc1ccc2oc(C(=O)O)c(C)c2c1` the “hERG current change (%, negative = inhibition) at 1uM” value was -3.41%.
For `COc1ccccc1N1CCN(S(=O)(=O)c2cc(C(F)(F)F)cc(C(F)(F)F)c2)CC1`, the “hERG current change (%, negative = inhibition) at 1uM” value was 14.2%.
With `CN(C)Cc1c(C(=O)N/N=C/c2ccccc2OCc2ccc(F)cc2)nnn1-c1nonc1N` the “hERG current change (%, negative = inhibition) at 1uM” value was 14%.
In the case of `CCCCCOC(=O)c1c(N)n(CCOC)c2nc3ccccc3nc12`, the “hERG current change (%, negative = inhibition) at 1uM” value is reported as -17.5%.
In the case of `COc1ccc(CNC(=O)CN2CCC(C(=O)c3ccc(OC)cc3)CC2)cc1`, the “hERG current change (%, negative = inhibition) at 1uM” value is reported as -15.3%.
With `Cc1ccc(-n2nc(C)c3c(C)c(CCC(=O)NCc4ccccc4)c(C)nc32)cc1` the “hERG current change (%, negative = inhibition) at 1uM” value was 14.3%.
With `CCOC(=O)c1sc2ncn(/N=C/c3ccc(O)cc3)c(=O)c2c1C` the “hERG current change (%, negative = inhibition) at 1uM” value was 18.3%.
